Hit rate of the full screen: of about 46,000 compounds, about 60 (0.1%) were called active. Another 3% or so got no clear call; they are omitted. The call rests on the fitted dose curve; in most records, active means well fitted inhibition curve with a large enough effect; inconclusive means small, poorly fitted or top-dose-only effect; inactive means no such curve, though single readings can be large or run the other way. This is one part of the list.
Assay: Primary qHTS assay for Inhibitors of ovarian cancer metastasis using an organotypic tumor microenvironment (TME) model. Further: nearly all actives have a fitted effect of over 65% in size.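 On activity change, negative = inhibition: plate controls were DMSO wells for no effect and tomatine positive control wells for full effect.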
Settings: SKOV3ip1-GFP adhesion/invasion on 3D omental model, fluorescence; series mostly up to 45.8 µM; activity change, negative = inhibition: at the top concentration
Method in brief: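 qHTS, 4-pt dose (0.36-46 umol/L); SKOV3ip1-GFP, 1,200 cells/well, no FBS; primary omental fibroblast/mesothelial co-culture 48 h pre-grown; 2 h RT + 16 h 37 C; PBS wash, 4% PFA; GFP count 488/509 nm.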

SMILES | activity change, negative = inhibition | outcome
COc1ccc(NC(=O)CCc2nc3cccnc3n2-c2ccccc2)cc1Cl | inactive: 5.11% | –
COC(=O)c1ccc(Cl)cc1NC(=O)NC(C)c1c(-n2cccc2)sc(C)c1C (stereo not drawn) | inactive: -1.75% | –
Cc1ccccc1CSCCNC(=O)C1CCN(S(=O)(=O)Cc2ccccc2)CC1 | inactive: -16% | –
O=c1c2c3c(sc2n(Cc2ccccc2F)c(=O)n1-c1ccc(Cl)cc1)CCCC3 | – | inactive
Cc1ccc(O)c(NC(=O)c2cc(-c3ccc(F)cc3)on2)c1 | inactive: -1.04% | –
Cc1cccc(C(=O)N2CCC(N3CCN(Cc4ccc(F)cc4)C(=O)C3=O)CC2)c1 | – | inactive
Cc1cc2c(cc3c(SCc4cccc(F)c4)nnc(C)n32)o1 | – | inactive
CC(C)c1ccc(C2c3c(oc4ccc(Cl)cc4c3=O)C(=O)N2CCCN2CCOCC2)cc1 (stereo not drawn) | inactive: -0.331% | –
COc1cc(NC(=O)CN2C(=O)C(c3ccc(Cl)cc3)=NC23CCCCC3)cc(OC)c1 | inactive: -7.86% | –
CC(=O)c1ccc(NC(=O)Cn2c(=O)cc(C)c3c(C)nn(-c4cccc(F)c4)c32)cc1 | inactive: -8.43% | –
Cc1ccc(CSc2nnc([C@@H](N)C(C)C)o2)cc1 | – | inactive
CCOC(=O)c1cccc(NC(=O)CCn2c(=O)oc3ccccc32)c1 | inactive: 1.41% | –
Cc1c(C)c2c(cc(C)c3c(-c4ccc(Br)cc4)coc32)oc1=O | – | inactive
CCC(Oc1ccccc1)C(=O)Nc1cccc(OCc2cc(=O)n3cccc(C)c3n2)c1 (stereo not drawn) | inactive: 10.5% | –
Cc1cccc(NC(=O)Cn2cc(S(=O)(=O)N3CCCC3)c(S(=O)(=O)N3CCCC3)c2)c1C | – | inactive
Cc1cccc(-c2nc3c4c(-c5ccccc5)c(-c5ccccc5)oc4ncn3n2)c1 | inactive: 6.33% | –
Cc1ccc(C2N=C(N)Nc3nc4ccccc4n32)cc1 (stereo not drawn) | inactive: 9.92% | –
CCN(CC)c1ccc(C(=O)NCc2nc3cccnc3n2Cc2ccc(C)cc2)cc1 | inactive: -8.28% | –
COc1cccc(NC(=O)CSc2nc(C)c(Cc3ccccc3)c(=O)[nH]2)c1 | inactive: 1.51% | –
CCC1CCc2nc3sc(C(=O)Nc4cccc(F)c4)c(N)c3cc2C1 (stereo not drawn) | inactive: 4.53% | –
CCOC(=O)c1c(C)[nH]c(C)c1S(=O)(=O)NCC(=O)Nc1cccc(SC)c1 | – | inactive
O=C(NCC(c1cccnc1)N1CCN(c2ccccc2F)CC1)c1ccc(F)cc1 (stereo not drawn) | inactive: 5.59% | –
COc1ccc(OC)c(CNC(=O)c2c(C)oc3ncn(CC(C)C)c(=O)c23)c1 | inactive: 0.0303% | –
CCCCOc1ccc(C2=NC(c3cccs3)=Nc3ccc(OC)cc3N2)cc1 | inactive: -0.955% | –

SMILES | activity change, negative = inhibition | outcome
Cc1nn(C)c(C)c1S(=O)(=O)N(CC(=O)NCCc1ccc(Cl)cc1)c1ccc(C(C)C)cc1 | – | inactive
COc1cccc2sc(N(Cc3cccnc3)C(=O)c3ccco3)nc12 | inactive: 2.41% | –
Cc1cccc(NC(=O)c2cnc3sc(N4CCCC4)nn3c2=O)c1C | inactive: 3.29% | –
CSCCC(NS(=O)(=O)c1ccc2c(c1)oc(=O)n2C)C(=O)Nc1ccc(F)c(Cl)c1 (stereo not drawn) | inactive: -0.595% | –
COc1ccc(NC(=O)c2c(NCc3cccc(F)c3)sc3c2CCC3)c(OC)c1 | inactive: -2.37% | –
Cc1ccccc1C(=O)Nc1ccc(S(=O)(=O)N2CCC(c3nc4ccccc4s3)CC2)cc1 | inactive: -9.61% | –
COc1ccc(C)cc1NC(=O)C(=O)NCCc1sc(-c2cccc(C)c2)nc1C | – | inactive
Cc1cc(C)cc(NC(=O)Cc2csc(COc3cccc(C)c3)n2)c1 | inactive: 17.8% | –
O=C(CN1C=NS(=O)(=O)c2ccccc21)Nc1ccccc1F | inactive: 9.22% | –
O=C(NCc1ccccc1F)C1CCCN(C(=O)N2CCOc3ccccc32)C1 (stereo not drawn) | inactive: -4.82% | –
CCOc1ccc(S(=O)(=O)N(CC(=O)Nc2ccc(OC)cc2OC)c2ccccc2)cc1 | inactive: 2.83% | –
CCCNC(=O)C1CCC(Cn2c(=O)c3sccc3n(CC(=O)NCc3ccccc3)c2=O)CC1 (stereo not drawn) | inactive: 5.04% | –
CCOC(=O)c1ccc(NC(=O)CCCc2nc(-c3cc(OC)c(OC)c(OC)c3)no2)cc1 | inactive: 2.22% | –
COc1ccc(N2C(=O)CS(=O)(=O)C23C(=O)N(Cc2ccccc2F)c2ccccc23)cc1Cl (stereo not drawn) | inactive: -5.97% | –
Cc1nn(C(C)C(=O)N2CCN(c3ccc(F)cc3)CC2)c(=O)c2c1sc1ccccc12 (stereo not drawn) | inactive: 2.29% | –
CCn1cc(C(=O)NCCc2ccccc2)c(=O)c2cc(S(=O)(=O)N3CCCCCC3)ccc21 | – | inactive
COc1ccc(Br)cc1CNC(=O)c1cc(=O)[nH]c2ccc(S(=O)(=O)N3CCCCC3C)cc12 (stereo not drawn) | inactive: 0.933% | –
CCOc1ccc(C(=O)Nc2cccc(C(=O)OCc3cc(=O)n4cc(C)sc4n3)c2)cc1 | inactive: -4.15% | –
Cc1cccc2nc(Cn3c(=O)n(-c4ccc(Cl)cc4)c(=O)c4c5c(sc43)CCC5)cc(=O)n12 | inactive: -1.23% | –
COc1ccc(S(=O)(=O)N(CC(=O)N2CCc3ccccc3C2)c2ccc(C)cc2)cc1 | inactive: 5.65% | –
COc1ccc(OC)c(CNS(=O)(=O)c2ccc3c(c2)oc(=O)n3C)c1 | inactive: -5.1% | –
COc1ccc(-c2nc3ccccc3o2)cc1NC(=O)COc1ccc(C)c(C)c1 | – | inactive
Cc1cccc(C)c1NC(=O)C1CCCN1S(=O)(=O)c1ccccc1 (stereo not drawn) | inactive: 4.85% | –
Cc1cccc(Cn2cc(S(=O)(=O)c3ccccc3)c(=O)c3cc(F)c(N4CCOCC4)cc32)c1 | – | inactive

— PubChem BioAssay AID1963576 (National Center for Advancing Translational Sciences (NCATS), 2024)
